Measurements published in US20210369661A1, “METHODS AND COMPOSITIONS FOR TREATING AND RECOVERING FROM VIRAL INFECTIONS” (IMMUNOFLEX THERAPEUTICS INC., priority 2020, published 2021).

Test system: CDR-3 of T- and B-cell surface receptors (immune repertoire)
Assay: Phase IV open label trial: immune repertoire changes by CDR-3 sequencing, healthy adults 60-70 years
Settings: for Diversity Index vs. visit number, Visit 4: Visit 4 = after 2 weeks of daily dosing
[1] = diversity index plot (example participant)

| Compound | Post-Treatment (1 week after dosing stopped (day 29), trial results summary) | Participants showing Diversity Index increasing in sync with the supplement protocol (NAC 600 mg twice daily, 14 days) | Diversity Index vs. visit number, Visit 4 [1] | Diversity index (DI), Post-Treatment Effect (mean percent difference, time periods 0 d to 29 d, 7 d to 29 d, 21 d to 29 d) | Diversity Index vs. visit number, Visit 5 (diversity index plot (example participant), Visit 5 = 1 week after dosing was stopped) | Alice clusters (ALICE significant clusters), Effect During Treatment (mean percent difference, 0 d to 21 d and 7 d to 21 d) | Alice clusters (ALICE significant clusters), Post-Treatment Effect (mean percent difference, 0 d to 29 d, 7 d to 29 d, 21 d to 29 d) | During Treatment, Trend (oral daily dosing 14 days (day 7 to day 21), trial results summary) |
| --- | --- | --- | --- | --- | --- | --- | --- | --- |
| CC(=O)N[C@@H](CS)C(=O)O [NAC, N-acetylcysteine] | No effect | 4 out of 4 | greatest change | goes down |  |  |  |  |
| CCCCCCCCCCCCCCCC(=O)NCCO [PEA, Palmitoylethanolamide] |  |  |  |  | huge increase | decreases | dramatic increase | no effect |
| COc1cc(/C=C/C(=O)CC(=O)/C=C/c2ccc(O)c(OC)c2)ccc1O [CUR, Curcumin] |  |  | greatest change |  |  |  |  |  |
